We go through 82 molecules from PubChem BioAssay AID1346428 (National Center for Advancing Translational Sciences (NCATS), 2018).

Several values for one entry are separate records, joined by “and”; a condition that tells them apart may be missing. Equal values may be shown once. Among all 48,000 compounds or so, about 1,200 (2.5%) were called active. Roughly 2% stayed inconclusive and do not appear here.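 The calls were made as follows: active = activation of at least 60% and not above a set upper limit (about 1 call in 100 departs from these limits); inconclusive = activation of 40% to 60%, or above that upper limit; inactive = activation under 40%.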 The list shows a part of the results.

In the assay the target is Probable G-protein coupled receptor 32 (Homo sapiens) (UniProt O75388). The assay can be described thus: qHTS for Agonists of Human Resolvin D1 Receptor DRV1. Particulars: CHO-K1 GPR32 beta-arrestin PathHunter luminescence, 90 min; at 76.9 µM; hits give high values; zero percent set by DMSO-only wells. The essentials: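 PathHunter enzyme-fragment complementation, CHO-K1 GPR32 stable line; 2,500 cells/well, overnight attach; cpd 90 min 37 °C 5% CO2; detection reagent 1 h RT; chemiluminescence. DMSO = EC0.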
Chain of UniProt O75388 (O75388 whole entry, looked up, the tested form may be a part): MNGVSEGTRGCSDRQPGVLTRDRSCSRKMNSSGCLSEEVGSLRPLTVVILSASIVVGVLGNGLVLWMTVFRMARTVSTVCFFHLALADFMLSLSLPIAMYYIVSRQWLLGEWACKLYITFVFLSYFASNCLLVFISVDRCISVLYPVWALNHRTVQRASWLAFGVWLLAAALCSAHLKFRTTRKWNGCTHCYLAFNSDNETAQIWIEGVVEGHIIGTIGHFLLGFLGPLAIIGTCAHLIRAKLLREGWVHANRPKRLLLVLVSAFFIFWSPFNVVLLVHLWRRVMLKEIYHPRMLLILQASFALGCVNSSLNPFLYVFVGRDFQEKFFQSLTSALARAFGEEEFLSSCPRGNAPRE
A general note: Quantitative high-throughput screening tests each substance at several concentrations.
For `Cc1cccc(-n2c(N)cc(=O)nc2SCC(=O)Nc2ccc(F)cc2)c1C`, the activation was inactive: 1.15%.
The figure for `COc1ccc(Br)cc1C(=O)Nc1ccc(-c2nc3ncccc3o2)cc1C` is inactive: 24.6%.
The result for `COc1ccc(NC(=O)c2ccc(-c3ccc(-c4noc(C)n4)cc3C)cc2)cc1N1CCN(C)CC1` reads inactive: -7.88%; that for `CCc1ccc(NC(=O)CSc2ccc3nc(-c4ccc(OC)cc4)cn3n2)cc1`, inactive: -12.3%; that for `Cc1ccc(C(=O)NCC(=O)OCc2cc(=O)n3ccsc3n2)cc1`, inactive: -14.9%.
The figure for `CCC(C(=O)NCc1ccc2c(c1)CCN2C(=O)c1ccc(F)cc1)c1ccccc1` (configuration not stated) is inactive: -17.5%.
For `Cc1noc(-c2ccc(-c3noc(-c4ccccc4)n3)cc2)n1`, the activation was inactive: 14.7%.
The figure for `CCc1ccc(C2CC(=O)c3c([nH]c(C(=O)OCc4ccc(C)cc4)c3C)C2)cc1` (configuration not stated) is inactive: 9.09%.
The result for `O=C(NCCc1ccc(Cl)cc1)c1ccc(CS(=O)(=O)Cc2ccc(Cl)cc2)o1` reads inactive: 27.6%; that for `CCc1nc2ccc(C(=O)NCCc3ccc(OC)cc3OC)cc2nc1CC`, inactive: -0.658%.
The result for `CCOC(=O)c1cc(-c2ccc(C)cc2)n(CCC(=O)Nc2cc(Cl)ccc2C)c1C` reads inactive: -19.5%; that for `CC1CCN(S(=O)(=O)c2ccc3[nH]cc(C(=O)NCc4ccc(F)cc4)c(=O)c3c2)CC1`, inactive: -41.8%; that for `CCOc1ccc(CCNC(=O)c2cc(Nc3ccc(C)cc3C)nc3ccccc23)cc1OCC`, inactive: 0.272%.
As to `CC(=O)c1cc(-c2ccccc2)n(CCC(=O)Nc2nc3c(C)cccc3s2)c1C`, the activation was inactive: -10%.
The figure for `Cc1ccc(N2CC(NC(=O)Cc3ccc(F)cc3)CC2=O)cc1` (configuration not stated) is inactive: -4.42%.
Turning to `O=C1Cc2cc(S(=O)(=O)N3CCCCC3)cc3c2N1CCC3`, the activation was inactive: -33.1%.
The figure for `COc1cc2[nH]c(=O)n(Cc3ccc(C(=O)NCc4ccc(C)cc4)cc3)c(=O)c2cc1OC` is inactive: -2.19%; for `COc1ccccc1NC(=O)Cn1c(=O)n(-c2cccc(Cl)c2)c(=O)c2sc3ccccc3c21` it is inactive: -0.863%; for `Cc1ccc2c(c1)sc1nc(-c3cc4cc(Cl)ccc4oc3=O)cn12` it is inactive: -7.6%.
Consider `Cc1cccc(CSc2nc(=O)c3c(n2C)NC(=O)CC3c2cccc(O)c2)c1` (configuration not stated), for which the activation is inactive: -14.6%.
The result for `O=C(Cn1c(=O)n(Cc2ccc(C(=O)NCc3ccc4c(c3)OCO4)cc2)c(=O)c2ccccc21)Nc1cccc(Cl)c1` reads inactive: -4.25%.
The result for `O=C(O)c1cc(=O)c2ccccc2[nH]1` reads inactive: -1.69%.
The result for `CC1=C(C(=O)Nc2cccc(C(F)(F)F)c2)C2(CCCCCC2)OC1=O` reads inactive: -20.1%; that for `CCCCc1nn2c(=O)cc(COC(=O)c3cccs3)nc2s1`, inactive: 17.2%.
For `Cc1ccc(Cn2c(=O)n(Cc3ccccc3Cl)c(=O)c3cccnc32)cc1`, the activation was inactive: -37.5%.
Take `CCNc1sc(S(C)(=O)=O)nc1S(=O)(=O)c1ccc(C)cc1`: the activation is inactive: -17.5%.
The result for `Cc1cc(C(=O)N2CCN(c3cc(Cl)ccc3C)CC2)c2c(C)nn(-c3ccccc3)c2n1` reads inactive: -10.7%; that for `Cn1c(=O)n(C)c2cc(N3CCCC3)c(NC(=O)Nc3ccccc3)cc21`, inactive: 39.5%; that for `Clc1cccc(-n2ncc3c(N4CCCCCC4)ncnc32)c1`, inactive: 0.497%.
As for `Cc1ccc(NC(=O)Cn2ncn3c(cc4ccccc43)c2=O)cc1C`, the activation is inactive: -5.37%.
The figure for `CCc1ccc(NC(=O)CCNC(=O)Cn2cnc3ccccc3c2=O)cc1` is inactive: 36%.
The result for `Cc1ccc(CNC(=O)c2cccc(Nc3nc4ccccc4n4nnnc34)c2)cc1` reads inactive: -13.8%.
The result for `Cc1ccc(N2CCN(c3nc4ccccc4c4nnc(C)n34)CC2)c(C)c1` reads inactive: -0.856%; that for `COC(=O)c1ccccc1NC(=O)Cn1c(=O)n(CCCCC(=O)NCc2ccc3c(c2)OCO3)c(=O)c2ccccc21`, inactive: -41.2%; that for `COc1cc(OC)c(NC(=O)c2c(C)oc3ncnc(N4CCCCC4)c23)cc1Cl`, inactive: -15.7%.
Regarding `Cn1c(=O)c2c(nc(N3CCOCC3)n2Cc2ccccc2)n(C)c1=O`, the activation was inactive: 0.403%.
On to `CCOC(=O)c1c(C)[nH]c(C)c1S(=O)(=O)N(C)CC(=O)N1CCN(c2cccc(Cl)c2)CC1`, for which the activation is inactive: 33.7%.
Turning to `Cc1cccc(C)c1NC(=O)Cn1cc(S(=O)(=O)Cc2ccc(F)cc2)c2ccccc21`, the activation is inactive: -20.7%.
In the case of `COc1ccc(C(=O)Nc2nnc(SCc3cc(=O)n4cc(Cl)ccc4n3)s2)cc1`, the activation was inactive: -5.5%.
The figure for `Cc1cc(C)cc(NC(=O)Cn2c(=O)n(CC(=O)NCCc3ccccc3)c(=O)c3ccccc32)c1` is inactive: 48.5%; for `Cc1ccc(CNC(=O)CN2C(=O)COc3ccccc32)cc1` it is inactive: -5.96%.
The figure for `Cc1ccc(C(=O)c2cn(Cc3c(F)cccc3Cl)c3nc(C)ccc3c2=O)cc1` is active: 82.2%; for `Cc1ccc(Cl)cc1NC(=O)c1ccc2nc(CCc3ccccc3)oc2c1` it is inactive: -2.73%; for `CCc1ccc(C(=O)Nc2cccc(-c3nc4cc(C(C)C)ccc4o3)c2)cc1` it is inactive: 7.33%.
For `CC(=O)c1cccc(NC(=O)Nc2cc3c(cc2N2CCCC2)n(C)c(=O)n3C)c1`, the activation was inactive: -3.98%.
The result for `Cc1ccc(-c2nc(CNC(=O)NC3CCCCC3)c(C)o2)cc1` reads inactive: -16.6%; that for `COc1ccc(CNc2nc(-c3ccco3)nn2C(=O)c2ccccc2C)cc1`, inactive: -16.9%; that for `CCOc1ccc(Nc2oc(-c3ccc(COc4ccc(C)cc4)o3)nc2C#N)cc1`, active: 67.3%.
The result for `CCn1cc(C(=O)NCc2ccccc2Cl)c(=O)c2cc(S(=O)(=O)N3CCCCCC3)ccc21` reads inactive: -5.98%.
With `CCCCC(=O)Nc1ccc(C(=O)OCc2cc(=O)n3ccsc3n2)cc1`, the activation is inactive: 3.03%.
In the case of `CSCC[C@H](NC(=O)[C@H](Cc1c[nH]c2ccccc12)NC(=O)CCNC(=O)OC(C)(C)C)C(=O)N[C@@H](CC(=O)O)C(=O)N[C@@H](Cc1ccccc1)C(N)=O`, the activation is inactive: 20.6%.
The figure for `O=S(=O)(c1ccccc1)c1nc(-c2ccco2)oc1SCc1ccc(F)cc1` is inactive: -14.2%; for `COc1ccc(Cn2c(SCc3ccc(C(=O)NCc4cccs4)cc3)nc3ccncc32)cc1` it is inactive: 5.15%; for `CCN(C(=O)c1cc(S(=O)(=O)N2CCCC2)cn1C)c1ccc(OC)cc1` it is inactive: -10.9%.
The figure for `COc1ccc(NC(=O)c2nnn(CC(=O)Nc3cc(C)cc(C)c3)c2N)c(OC)c1` is inactive: 3.39%; for `O=C(CSc1nnc(-c2ccc(Cl)cc2)c(-c2ccc(Cl)cc2)n1)NC1CCCC1` it is inactive: -16.2%; for `CCOC(=O)c1sc2cccc(F)c2c1S(=O)(=O)Nc1ccccc1F` it is inactive: -10%.
In the case of `O=C(CCCn1c(=O)[nH]c2ccsc2c1=O)N1CCN(c2ccc(Cl)cc2)CC1`, the activation is inactive: 29.8%.
Regarding `Cc1ccc(C)c(NC(=O)Cn2c(=O)n(CC(=O)NCCc3ccccc3)c(=O)c3ccccc32)c1`, the activation was inactive: 11.1%.
Turning to `Cc1ccc(NC(=O)Cn2c(=O)cc(-c3ccccc3)c3c(C)nn(C)c32)c(Cl)c1`, the activation was inactive: -1.91%.
Consider `COC(=O)c1ccc(NC(=O)CSc2nc3cc4ccccc4cc3[nH]2)cc1`, for which the activation was active: 93.7%.
As to `CCOCCCNC(=O)Cn1nc(CC)n2c(cc3c(OC)cccc32)c1=O`, the activation is inactive: -12.3%.
The figure for `N#Cc1ccccc1NC(=O)C(=O)NCC(c1cccnc1)N1CCc2ccccc21` (configuration not stated) is inactive: -23.3%; for `COc1cc(OC)c(NC(=O)C(C)n2nc(-c3ccc(C)cc3)c3c(c2=O)CCCC3)cc1Cl` (configuration not stated) it is inactive: 3.74%; for `O=C(Nc1cc(F)ccc1F)c1cnn2c(C(F)F)cc(-c3ccccc3)nc12` it is inactive: 12.4%.
Take `CCOC(=O)CC(NC(=O)CCc1c(C)nc2cc(-c3ccccc3)nn2c1C)c1ccc(C)cc1` (configuration not stated): the activation is inactive: -1.53%.
For the molecule `CC(C)NNC(=O)c1ccncc1`, the activation was inactive: -15.9% and inactive: -5.66%.
Take `O=C(c1ccccc1)c1ccc2nc(N3CCN(c4ccc(F)cc4)CC3)c3nncn3c2c1`: the activation is inactive: -43.2%.
The result for `Cc1ccc(NC(=O)C2CCCN(c3ncnc4onc(C)c34)C2)cc1Cl` (configuration not stated) reads inactive: 4.58%; that for `COc1ccccc1-c1cc2nc(C)c(CCC(=O)NC3CCCCC3)c(C)n2n1`, inactive: 19.9%; that for `Cc1ccc(S(=O)(=O)c2nnn3c2nc(N2CCN(c4cccc(C)c4C)CC2)c2ccccc23)cc1C`, inactive: 1.52%.
The result for `CC(C)CCn1c(=O)c2sccc2n2c(CCCC(=O)Nc3ccc(C(C)C)cc3)nnc12` reads inactive: -13.8%; that for `CCOC(=O)CC(NS(=O)(=O)c1cc(-c2cc(C)no2)ccc1C)c1ccc(C)cc1` (configuration not stated), inactive: 8.73%.
With `COc1ccc(N2CCN(c3nc4ccccc4n4c(C)nnc34)CC2)cc1`, the activation is inactive: -17.6%.
On to `CCOc1ccc2nc(NC(=O)c3nc(SCc4ccc(C)cc4)ncc3Cl)sc2c1`, for which the activation was inactive: 8.45%.
For the molecule `CCOc1ccc(C(=O)Nc2ccc3nc4c(c(Nc5ccccc5OC)c3c2)CCCC4)cc1`, the activation was inactive: -31.6%.
For the molecule `Cc1cccc(C)c1NC(=O)CN(C)S(=O)(=O)c1ccc2[nH]c3c(c2c1)CCCC3`, the activation is active: 62.3%.
Regarding `O=C(CC1N=C2c3ccccc3N=C(SCC(=O)Nc3ccccc3F)N2C1=O)NCc1ccc2c(c1)OCO2` (configuration not stated), the activation is inactive: -23.8%.
Regarding `Cc1ccc2occ(CC(=O)Nc3c(C(=O)Nc4ccc(Cl)cc4)oc4ccccc34)c2c1`, the activation is inactive: 0.65%.
Consider `CC(C)COc1ccc(C(=O)N2CCC(c3nc4ccccc4s3)CC2)cc1`, for which the activation is inactive: -10.8%.
In the case of `Cc1ccc(CSc2nncn3c2cc2sccc23)cc1`, the activation is inactive: -10.5%.
The result for `CN(C(=O)CSc1nc2ccccc2[nH]1)c1ccc(F)cc1` reads inactive: -1.39%.
